In publication PMC4336329 (PLoS ONE, 2015):
In all, about 310,000 compounds went through this assay and about 14,000 (4.5%) showed an effect of 50% or more. The effect is printed as a negative number. The list shows a part of the results.

Target: human ether-à-go-go-related gene (hERG) potassium channel (human, UniProt Q12809)
Experiment: primary screen, population patch clamp on CHO cells stably expressing hERG
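Further: peak tail current of the secondary pulse compared with the same well before compound.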

human ether-à-go-go-related gene (hERG) potassium channel, sequence (Q12809 whole entry, looked up): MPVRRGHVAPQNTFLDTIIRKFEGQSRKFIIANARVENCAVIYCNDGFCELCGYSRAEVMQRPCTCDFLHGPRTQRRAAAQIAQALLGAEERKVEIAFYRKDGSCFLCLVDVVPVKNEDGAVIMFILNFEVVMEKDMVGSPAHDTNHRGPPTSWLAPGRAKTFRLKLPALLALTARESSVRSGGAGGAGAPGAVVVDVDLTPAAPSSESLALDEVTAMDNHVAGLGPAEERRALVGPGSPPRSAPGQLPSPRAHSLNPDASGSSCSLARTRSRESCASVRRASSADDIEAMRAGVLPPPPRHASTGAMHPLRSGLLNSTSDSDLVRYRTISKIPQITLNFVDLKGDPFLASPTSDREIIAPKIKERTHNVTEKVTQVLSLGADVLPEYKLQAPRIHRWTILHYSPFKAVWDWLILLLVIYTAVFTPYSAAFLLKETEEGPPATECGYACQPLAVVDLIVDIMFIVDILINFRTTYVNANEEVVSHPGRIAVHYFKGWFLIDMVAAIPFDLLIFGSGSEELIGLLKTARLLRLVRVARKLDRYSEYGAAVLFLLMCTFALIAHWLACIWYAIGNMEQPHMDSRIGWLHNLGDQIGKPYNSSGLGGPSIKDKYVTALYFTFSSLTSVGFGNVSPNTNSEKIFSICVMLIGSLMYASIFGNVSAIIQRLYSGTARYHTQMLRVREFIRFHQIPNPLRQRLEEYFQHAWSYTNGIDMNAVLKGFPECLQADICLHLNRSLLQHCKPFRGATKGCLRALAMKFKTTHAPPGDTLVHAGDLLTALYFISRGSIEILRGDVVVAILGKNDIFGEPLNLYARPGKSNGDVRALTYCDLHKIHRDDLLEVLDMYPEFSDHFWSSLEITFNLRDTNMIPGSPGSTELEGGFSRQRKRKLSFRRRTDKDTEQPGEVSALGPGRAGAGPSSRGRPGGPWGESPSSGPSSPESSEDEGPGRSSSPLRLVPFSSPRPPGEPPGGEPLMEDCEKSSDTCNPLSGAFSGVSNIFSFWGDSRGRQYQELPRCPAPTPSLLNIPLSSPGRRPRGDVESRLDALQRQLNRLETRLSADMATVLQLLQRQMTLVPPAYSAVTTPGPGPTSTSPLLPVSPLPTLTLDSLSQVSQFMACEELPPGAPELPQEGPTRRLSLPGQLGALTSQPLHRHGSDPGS

Compound	hERG current change (%, negative = inhibition) at 10uM [%]
COCCNC(=O)c1cc(-c2cccc(OC)c2)on1	16.6
Cc1cccc(COCC(Cc2ccccc2)N2CCN(C(=O)c3ccc(C(F)(F)F)cc3)CCC2=O)c1 (stereo not shown)	-13.1
Cc1ccc(C(=O)NC2CCCc3c2cnn3-c2ccc(F)cc2F)cn1 (stereo not shown)	7.46
Cc1ccc(S(=O)(=O)N2CCOCC2)cc1C(=O)NCC1CCCCC1	-4.28
COc1ccc(C(C)NC(=S)NCc2ccc(F)cc2)cc1 (stereo not shown)	0.1
O=C(NNC(=O)c1cc2c(s1)CCCC2)c1ccccc1	5.28
C=CCOc1cccc(C(=O)N2CCCC(Nc3ccc4c(c3)OCCO4)C2)c1 (stereo not shown)	-1.22
COc1cccc(CN(C)C(=O)Nc2cccc(C(F)(F)F)c2)c1OC	-4.73
c1ccc2c(c1)Cc1cc(CN3CCOCC3)ccc1-2	-7.2
C/C(=N\NC(=O)COc1ccc(C(C)(C)C)cc1)c1ccccc1	19.6
O=C(COc1ccccc1Cl)NNC(=O)c1ccc(-n2cncn2)c([N+](=O)[O-])c1	10.9
Cc1cccc(NC(=S)N(CCN(C)C)Cc2cccs2)c1	-25.8
CC(C)(C)SCCNS(=O)(=O)c1ccc2ccccc2c1	-16.7
CCOc1ccc(-n2c(O)c(/C=N/NC(=O)C3COc4ccccc4O3)c3ccccc3c2=O)cc1 (stereo not shown)	2.95
O=C(NCc1ccccn1)C1CCCN(S(=O)(=O)c2cccc3nsnc23)C1 (stereo not shown)	7
O=[N+]([O-])c1ccc(C2C3C(c4ccccc4)=NC4(CCCC4)N32)cc1 (stereo not shown)	-22
Cc1cc(C)c(NC(=O)CN(C)CC(=O)N(C)CC(=O)Nc2c(Cl)cccc2Cl)c(C)c1	9.65
Cc1ccc(Nc2c([N+](=O)[O-])c(=O)n(C)c3ccccc23)cc1C	-21.3
Cc1cccc(C)c1N(C(=O)c1ccco1)C(C(=O)NC1CCCC1)c1ccncc1 (stereo not shown)	-1.34
COc1cc2c(cc1OC)C(c1ccccc1)=NCC2	-23.6
CC1CCCCN1S(=O)(=O)c1cccc2cccnc12 (stereo not shown)	-6.1
O=C(Nc1ccc(CN2CCS(=O)(=O)CC2)cc1)c1ccc(F)cc1	4.26

Compound	hERG current change (%, negative = inhibition) at 10uM [%]
CCOc1c(Cl)cc(Cl)cc1CNCCNCCO.Cl	-1.91
COC(=O)c1ccccc1N(C)S(C)(=O)=O	6.47
Cc1cccc(CSCCNC(=O)CN(c2cc(C)cc(C)c2)S(C)(=O)=O)c1	-23.9
CCOc1ccc(NC(=O)CN2CCN(S(=O)(=O)c3ccc(Cl)cc3)CC2)cc1	-9.26
c1ccc(Cn2c(CNc3nc4ccccc4n3CCN3CCCCC3)nc3ccccc32)cc1	-68.5
CN(c1ccc(OCC(=O)OCc2nnc(-c3ccccc3)o2)cc1)S(=O)(=O)c1ccc(Cl)cc1	-7.85
O=C(Nc1ccc(S(=O)(=O)Nc2ncccn2)cc1)c1cccc(S(=O)(=O)N2CCOCC2)c1	11.4
O=C(c1ccc(Cl)c([N+](=O)[O-])c1)N(Cc1ccc(F)cc1)C1CCS(=O)(=O)C1 (stereo not shown)	-27
CCN1CCN(c2ccc(S(=O)(=O)N3CCOCC3)cc2NC(=O)c2ccc(C(F)(F)F)cc2)CC1	-44.2
O=C(NC1CCCc2ccccc21)C1CCN(S(=O)(=O)c2cccc(C(F)(F)F)c2)CC1 (stereo not shown)	-10.8
CCOC(=O)CN1CC23C=CC(O2)C(C(=O)Nc2ccc(C(C)=O)cc2)C3C1=O (stereo not shown)	4.98
CCCOC(=O)c1ccc(NC(=O)c2ccccc2OC)cc1	4.44
CCc1c(C)nc2c(OC)cccc2c1Cl	-2.25
CCOC(=O)C(NC(=O)OC(C)C)(Nc1nccs1)C(F)(F)F (stereo not shown)	-5.14
CCOC(=O)c1c(NC(=O)CSc2nc3ccccc3c(=O)n2-c2ccccc2)sc(C(C)=O)c1C	15.8
O=[N+]([O-])c1c(NCCO)cc(N2CCCCCC2)c2nonc12	11.7
O=C(CN1CCc2ccccc2C1)Nc1ccccc1Cl	-21.2
CC1(OCON)CCCc2ccccc21 (stereo not shown)	11.5
O=C(c1cc(COc2c(F)cccc2F)on1)N1CCC(c2ccccc2Cl)C1 (stereo not shown)	-1.7
COc1cccc(NC2=C(C#N)C(=O)NC(c3cccc(OC)c3O)S2)c1 (stereo not shown)	16
O=C1CCCCC1C(=O)c1cn(-c2ccc(Cl)c(Cl)c2)nn1 (stereo not shown)	5.99
